Reference: PubChem BioAssay AID1347120 (National Center for Advancing Translational Sciences (NCATS), 2019)
Hit rate of the full screen: of about 390,000 compounds, about 930 (0.24%) were called active. Inconclusive results, whose numbers are uncertain, are shown with a selection of clear calls. Calls follow the shape of the dose curve; as a rule, active = well fitted activation curve with a large enough effect; inconclusive = small, poorly fitted or top-dose-only effect; inactive = no such curve, though single readings can be large or run the other way. Potencies beside an inconclusive call are fits to weak or partial responses and may not hold up.

Assay: qHTS for Suppressors of FUS Proteinopathy: Primary screen using FUS-linked yeast assay; also: nearly all actives have a fitted effect of over 55% in size;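 as to growth rescue (activation): plate controls were DMSO vehicle for no effect and reference control for full effect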
Settings: S. cerevisiae FUS-expressing, OD600, 24 h; Potency: growth rescue; growth rescue (activation): at 76.6 µM (top of the series)
How it was run: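 Yeast expressing FUS under galactose induction, OD 0.005 in 2% galactose medium; compounds in a dilution series, 24 h at 30C. Growth rescue by absorbance at 600 nm; CP55940 positive control, DMSO negative.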
Potency is read from the fitted curve at half-maximal effect; tags tell the direction and shape of the fitted curve.

SMILES | growth rescue (activation) | Potency
COc1ccccc1N1CCN(C(=O)C2CCCN(c3ncnc4c3nc3n4CCCCC3)C2)CC1 (stereo not drawn) | inactive: -5.87% | 
O=C(CC1N=C2c3ccccc3N=C(SCc3ccccc3F)N2C1=O)NCCc1ccccc1 (stereo not drawn) |  | inconclusive: 50.1 µM [activator, single point]
COc1ccccc1-n1c(CNC(=O)c2cccc([N+](=O)[O-])c2C)n[nH]c1=S |  | inconclusive: 1.58 µM [activator, full curve]
Cc1cc(NCc2ccccn2)n2nc(C)c(-c3ccc(Cl)cc3)c2n1 | inactive: 10.8% | 
CC(C)CC(NC(=O)OC(C)(C)C)c1cn([C@@H](Cc2cc3ccccc3[nH]2)C(=O)N2CCN(C(=O)OC(C)(C)C)CC2)nn1 (stereo partly drawn) |  | inconclusive: 15.8 µM [activator, partial curve, poor fit]
CCn1[nH]c(=O)c(=Nc2c(C)n(C)n(-c3ccccc3)c2=O)cc1-c1ccc(Cl)cc1 |  | inconclusive: 20 µM [activator, partial curve]
Cc1ccc(-n2nc(C(=O)N3CCN(c4cccc(C(F)(F)F)c4)CC3)c(=O)n(C)c2=O)cc1 |  | inconclusive: 35.5 µM [activator, single point]
CC(C)c1ccc(CNCCCSc2ncccn2)cc1 | inactive: -9.23% | 
CC(C)(C)OC(=O)NCCCCCNC(=O)c1nc[nH]c1C(=O)NCCCCCNC(=O)OC(C)(C)C |  | inconclusive: 25.1 µM [activator, single point]
OC(CNCC(c1ccco1)N1CCCCC1)c1ccccc1 (stereo not drawn) | inactive: 10.9% | 
O=C(Cn1cnc2c(nnn2Cc2ccc(Cl)cc2)c1=O)N1CCN(c2ccccc2)CC1 |  | inconclusive: 22.4 µM [activator, partial curve]
COc1ccc(CCN(Cc2cccs2)S(=O)(=O)c2ccccc2)cc1OC |  | inconclusive: 15.8 µM [activator, partial curve, poor fit]
COc1ccc2[nH]c(C(=O)N/N=C/c3ccc(OC)c(O)c3)cc2c1 | inactive: 19.5% | 
O=C(NC1CCCCN(Cc2cccc(C(F)(F)F)c2)C1=O)c1ccc(-c2ccccc2)cc1 (stereo not drawn) | inactive: 24.7% | 
CCOC(=O)c1nc(SC)n(C)c1C(=O)OCC | inactive: -0.507% | 
COC(=O)[C@@H](Cc1c[nH]c2ccccc12)NC(=O)C1CCCN(S(=O)(=O)c2ccc(C)cc2)C1 (stereo partly drawn) |  | inconclusive: 31.6 µM [activator, single point]
CC1=CCC(C(=O)O)C(C(=O)Nc2nc3ccc(S(C)(=O)=O)cc3s2)C1 (stereo not drawn) |  | inconclusive: 25.1 µM [activator, partial curve]
COc1cc(CNc2nc3ccccc3n2C)cc(OC)c1OC |  | inconclusive: 39.8 µM [activator, partial curve]
Cc1cccc(N2CCN(C(=O)c3cc4c(=O)oc5ccccc5c4s3)CC2C)c1 (stereo not drawn) |  | inconclusive: 3.98 µM [activator, single point]
COCOCCn1cc(CN2CCS(=O)(=O)N(Cc3ccc(-c4ccc(OC)c(OC)c4)cc3)C(CC(C)C)C2=O)nn1 (stereo not drawn) |  | inconclusive: 31.6 µM [activator, single point]
CN1CCN(c2ncc3c(n2)CCN(Cc2cc(Br)cs2)C3)CC1 | inactive: -18.6% | 
CC(=O)N1N=C(c2cccc([N+](=O)[O-])c2)OC1(C)c1cccs1 (stereo not drawn) | inactive: 5.04% | 

SMILES | growth rescue (activation) | Potency
C=CCSC1=C(C#N)C(c2ccccc2Cl)C(C(=O)c2cccs2)C(O)(C(F)(F)F)N1 (stereo not drawn) |  | inconclusive: 20 µM [activator, partial curve, poor fit]
C=CCOCCN1C(=O)C2C(c3ccccc3)C=CC(c3ccccc3)C2C1=O (stereo not drawn) |  | inconclusive: 50.1 µM [activator, single point]
CC(Sc1nc(N2CCCCC2)c2c(c1C#N)CCCC2)C(=O)O (stereo not drawn) |  | inconclusive: 15.8 µM [activator, partial curve]
CCOc1ccc(-n2c(SCC(=O)Nc3cccc(Cl)c3)nc3c(oc4ccccc43)c2=O)cc1 | inactive: 26.6% | 
Cc1cccc(OCCCCn2c(C3CC(=O)N(c4ccccc4Cl)C3)nc3ccccc32)c1 (stereo not drawn) | inactive: 5.88% | 
CCCCOc1ccc(NC(=O)Nc2nnc(C)s2)cc1 | inactive: -31.2% | 
CCOC(=O)c1c(C)[nH]c(C(=O)C(C)OC(=O)c2cccc(OCc3c(C)noc3C)c2)c1C (stereo not drawn) |  | inconclusive: 35.5 µM [activator, single point]
O=C(Nc1ccc(C(O)(C(F)(F)F)C(F)(F)F)cc1)c1c(F)cccc1F | inactive: -2.6% | 
COc1ccc(C)cc1NC(=O)c1[nH]c(C)c(C(C)=O)c1C |  | inconclusive: 44.7 µM [activator, partial curve, poor fit]
COc1ccc(-n2cc(-c3ccccc3)c3c(NC4CCCCC4)ncnc32)cc1 | inactive: 19.5% | 
COc1cccc(N2C(=O)C3ON(c4ccccc4)C(c4cccs4)C3C2=O)c1 (stereo not drawn) |  | inconclusive: 50.1 µM [activator, single point]
CC(=O)Nc1cccc(-c2cc(C(C)=O)c3n(c2=O)CCC3)c1 | inactive: -12.4% | 
O=C(/C=C/c1ccc(Cl)cc1Cl)NCCN1CCOCC1 | inconclusive: 55.7% [activator] | 
CCc1nonc1NC(=O)c1oc2ccc(F)cc2c1C |  | inactive
CC1CCC(C(C)C)C(OC(=O)CSc2nc(N)cc(=O)[nH]2)C1 (stereo not drawn) |  | inconclusive: 39.8 µM [activator, partial curve, poor fit]
CC1=C(C(=O)Nc2ccc(Cl)cc2)C(c2ccccc2C)n2ncc(C(=O)Nc3ccc(C)cc3)c2N1 (stereo not drawn) |  | inconclusive: 25.1 µM [activator, single point]
O=C(NCc1ccccc1)C(c1ccncc1)n1c(=O)c(-c2ccco2)nc2ccccc21 (stereo not drawn) |  | inconclusive: 25.1 µM [activator, partial curve, poor fit]
CCCC1CCc2c(c3ccccc3[nH]c2=O)O1 (stereo not drawn) |  | inconclusive: 50.1 µM [activator, single point]
CCN(CC)C(=O)CN1C(=O)C2CCCCN2C(=O)c2ccccc21 (stereo not drawn) | inactive: -11.3% | 
CCOc1cc(N2CCOCC2)c(OCC)cc1NC(=O)CC12CC3CC(CC(C3)C1)C2 |  | inconclusive: 25.1 µM [activator, partial curve, poor fit]
COc1ccc(/C=N/c2c(-c3ccco3)nc3ccccn23)cc1OC |  | inconclusive: 31.6 µM [activator, single point]
